In patent publication US20210322301A1, “DOSING REGIMENS FOR TREATING METAL-MEDIATED CONDITIONS” (Abfero Pharmaceuticals, Inc., priority 2016, published 2021):
Like-named read-outs stand apart in the source and are kept apart here.

Columns and labels:
[1] = cited from earlier work
[2] = cited from earlier work; remark: listed apart in the source
[3] = 10-parameter urine dipstick analysis (glucosuria, hematuria, pH, specific gravity) after oral SP-420
[4] = for Survival: oral gavage, n=5
albumin = albumin (Homo sapiens, UniProt P02768); settings: cited from earlier work
albumin, sequence (P02768 25-609): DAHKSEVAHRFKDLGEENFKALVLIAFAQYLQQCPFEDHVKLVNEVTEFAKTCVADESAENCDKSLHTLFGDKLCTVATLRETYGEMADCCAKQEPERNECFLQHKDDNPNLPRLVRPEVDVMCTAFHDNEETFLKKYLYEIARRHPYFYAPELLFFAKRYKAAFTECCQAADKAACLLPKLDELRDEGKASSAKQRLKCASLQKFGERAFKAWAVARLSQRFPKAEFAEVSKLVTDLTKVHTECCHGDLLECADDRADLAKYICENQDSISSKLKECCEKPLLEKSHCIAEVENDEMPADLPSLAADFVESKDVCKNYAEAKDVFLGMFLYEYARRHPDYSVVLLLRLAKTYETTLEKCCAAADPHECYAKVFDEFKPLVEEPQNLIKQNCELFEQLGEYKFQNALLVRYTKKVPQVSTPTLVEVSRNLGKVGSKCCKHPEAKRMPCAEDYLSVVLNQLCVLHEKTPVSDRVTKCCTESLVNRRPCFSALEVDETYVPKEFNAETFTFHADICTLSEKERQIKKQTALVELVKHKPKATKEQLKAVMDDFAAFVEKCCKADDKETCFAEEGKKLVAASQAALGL

[5] = typical regimen, 3 times per day
[6] = daily oral dosing at steady state in human patients

In the case of CC(=O)N(O)CCCCCNC(=O)CCC(=O)N(O)CCCCCNC(=O)CCC(=O)N(O)CCCCCN [deferoxamine], the “Half-life (in words)” value ([1]; background) is given as “short half-life” and the Oral bioavailability ([1]; background) is given as “poor oral bioavailability”.

For COCCOCCOCCOc1cccc(C2=N[C@@](C)(C(=O)O)CS2)c1O [SPD602, (S)-2-(2-hydroxy-3-(2-(2-(2-methoxyethoxy)ethoxy)ethoxy)phenyl)-4-methyl-4,5-dihydrothiazole-4-carboxylic acid], the Overt toxicity ([2]; clinical development) is listed as “neither drug displayed overt toxicity”.

In the case of Cc1c(O)c(=O)ccn1C [Deferiprone], the “Elimination half-life (t1/2)” value ([1]; background) is given as 1.9 h, the Half-life [1, 5] is given as 2 h and the “Time to peak serum concentration” value [1, 5] is given as 1 h. The Iron chelator efficiency ([2]; background) was “low iron chelator efficiency”.

In the case of C[C@]1(C(=O)O)CSC(c2ccc(O)cc2O)=N1 [Deferitrin, 4,5-dihydro-2-(2,4-dihydroxyphenyl)-4-methylthiazole-4(S)-carboxylic acid], the Oral bioavailability ([1]; background) is listed as “good oral bioavailability” and the “Kidney safety finding in clinical study” value ([2]; phase 2 study) is listed as “kidney injury”.

With COCCOCCOc1ccc(C2=N[C@@](C)(C(=O)O)CS2)c(O)c1 [SP-420, (S)-4,5-dihydro-2-[2-hydroxy-4-(3,6-dioxaheptyloxy)phenyl]-4-methyl-4-thiazolecarboxylic acid] the Glucosuria ([3]; Example 2, 325 mg/kg EOD, n=5) was “not observed”, the “Appearance of 24-hour urine sample (FIG. 4)” value ([3]; one rat, 200 mg/kg/day SID) was “the top half contained a layer of frank blood” and the Survival ([4]; 200 mg/kg SID, max cumulative dose 2400 mg/kg) was 4/5. The Survival ([4]; 250 mg/kg EOD, max cumulative dose 2500 mg/kg) was 5/5, the Survival ([4]; 400 mg/kg EOD, max cumulative dose 2400 mg/kg) was 3/5 and the “Rats euthanized post-drug (weight loss, deteriorating condition)” value ([4]; Example 1, 162.5 mg/kg SID) was “one rat in the 162.5 mg/kg SID group was euthanized 3 days post-drug”. The “Kidney safety finding in clinical study” value ([2]; phase 1-2 study, terminated early, when the dose was escalated) was “kidney toxicity”.

In the case of O=C(O)c1ccc(-n2nc(-c3ccccc3O)nc2-c2ccccc2O)cc1 [Deferasirox], the Albumin binding (albumin) is listed as “highly bound to albumin”, the Mean elimination half-life [1, 6] is listed as “approximately 12 hours” and the “Time to peak serum concentration after the dose” value [1, 6] is listed as “approximately 2 hours”. For the same compound, the “Fraction of patients with a persistent increase in serum creatinine of 33% or greater” value ([2]; patients) was “Approximately one-third”.
